# Residue numbers refer to the chain shown, from its start. The list shows a part of the results.
# T1: RBFOX1 RRM RbFoxmut (Fox-RRM*) (Homo sapiens, UniProt Q9NWB1 109-208, R118D;E147R;N151S;E152T)
# T1 sequence: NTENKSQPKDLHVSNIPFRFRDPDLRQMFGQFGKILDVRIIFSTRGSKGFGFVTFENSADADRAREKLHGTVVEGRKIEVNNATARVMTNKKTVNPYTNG
# B1: UCCCCAA (DNA:RNA)
# RNA: GGGAGACCGGAAUUCAGAUUGUCCUCCCCAAUUAAAUCCCGUCGUAGCCACCA
# DNA 1: CAATCTGAATTCCGGTCTCCC
# DNA 2: TGGTGGCTACGACGGGATT
# B2: UGGCAUC (DNA:RNA)
# RNA: B1 RNA with C26G, C27G, C29A, A30U, A31C
# DNA 1: CAATCTGAATTCCGGTCTCCC
# DNA 2: TGGTGGCTACGACGGGATT
# B3: CCUUAUC (DNA:RNA)
# RNA: B1 RNA with U25C, C27U, C28U, C29A, A30U, A31C
# DNA 1: CAATCTGAATTCCGGTCTCCC
# DNA 2: TGGTGGCTACGACGGGATT
# B4: UACCACU (DNA:RNA)
# RNA: B1 RNA with C26A, C29A, A30C, A31U
# DNA 1: CAATCTGAATTCCGGTCTCCC
# DNA 2: TGGTGGCTACGACGGGATT
# B5: GCCCUUG (DNA:RNA)
# RNA: B1 RNA with U25G, C29U, A30U, A31G
# DNA 1: CAATCTGAATTCCGGTCTCCC
# DNA 2: TGGTGGCTACGACGGGATT
# B6: UAGGUAG (DNA:RNA)
# RNA: B1 RNA with C26A, C27G, C28G, C29U, A31G
# DNA 1: CAATCTGAATTCCGGTCTCCC
# DNA 2: TGGTGGCTACGACGGGATT
# B7: AGUAAAG (DNA:RNA)
# RNA: B1 RNA with U25A, C26G, C27U, C28A, C29A, A31G
# DNA 1: CAATCTGAATTCCGGTCTCCC
# DNA 2: TGGTGGCTACGACGGGATT
# B8: GUCCUAG (DNA:RNA)
# RNA: B1 RNA with U25G, C26U, C29U, A31G
# DNA 1: CAATCTGAATTCCGGTCTCCC
# DNA 2: TGGTGGCTACGACGGGATT
# B9: GGGGCUG (DNA:RNA)
# RNA: B1 RNA with U25G, C26G, C27G, C28G, A30U, A31G
# DNA 1: CAATCTGAATTCCGGTCTCCC
# DNA 2: TGGTGGCTACGACGGGATT
# B10: AGAAUCU (DNA:RNA)
# RNA: GGGAGACCGGAAUUCAGAUUGUCCAGAAUCUUUAAAUCCCGUCGUAGCCACCA
# DNA 1: CAATCTGAATTCCGGTCTCCC
# DNA 2: TGGTGGCTACGACGGGATT
# B11: GGCGAUC (DNA:RNA)
# RNA: B10 RNA with A25G, A27C, A28G, U29A, C30U, U31C
# DNA 1: CAATCTGAATTCCGGTCTCCC
# DNA 2: TGGTGGCTACGACGGGATT
# B12: AGCGCAC (DNA:RNA)
# RNA: B1 RNA with U25A, C26G, C28G, A31C
# DNA 1: CAATCTGAATTCCGGTCTCCC
# DNA 2: TGGTGGCTACGACGGGATT
# B13: UGCAAUA (DNA:RNA)
# RNA: B1 RNA with C26G, C28A, C29A, A30U
# DNA 1: CAATCTGAATTCCGGTCTCCC
# DNA 2: TGGTGGCTACGACGGGATT
# B14: AUAACGC (DNA:RNA)
# RNA: B10 RNA with G26U, U29C, C30G, U31C
# DNA 1: CAATCTGAATTCCGGTCTCCC
# DNA 2: TGGTGGCTACGACGGGATT
# B15: GGUUUGG (DNA:RNA)
# RNA: B10 RNA with A25G, A27U, A28U, C30G, U31G
# DNA 1: CAATCTGAATTCCGGTCTCCC
# DNA 2: TGGTGGCTACGACGGGATT
# B16: AUGAAUG (DNA:RNA)
# RNA: B10 RNA with G26U, A27G, U29A, C30U, U31G
# DNA 1: CAATCTGAATTCCGGTCTCCC
# DNA 2: TGGTGGCTACGACGGGATT
# B17: CUUACAA (DNA:RNA)
# RNA: B1 RNA with U25C, C26U, C27U, C28A
# DNA 1: CAATCTGAATTCCGGTCTCCC
# DNA 2: TGGTGGCTACGACGGGATT
# B18: AUGCAUC (DNA:RNA)
# RNA: B10 RNA with G26U, A27G, A28C, U29A, C30U, U31C
# DNA 1: CAATCTGAATTCCGGTCTCCC
# DNA 2: TGGTGGCTACGACGGGATT
# B19: UGGUGAU (DNA:RNA)
# RNA: B10 RNA with A25U, A27G, A28U, U29G, C30A
# DNA 1: CAATCTGAATTCCGGTCTCCC
# DNA 2: TGGTGGCTACGACGGGATT
# B20: UAUACAC (DNA:RNA)
# RNA: B1 RNA with C26A, C27U, C28A, A31C
# DNA 1: CAATCTGAATTCCGGTCTCCC
# DNA 2: TGGTGGCTACGACGGGATT
# Target: T1, RBFOX1 RRM RbFoxmut (Fox-RRM*)
# Assay: EMSA; HiTS-Eq, 1 nM pool, 10 min; buffer printed only for the single-RNA assays: 10 mM Tris pH 7.5, 150 mM NaCl, 3.4 mM EDTA, 0.001% NP-40, 30 C
# Conditions: tags: His6 N-terminal (pET28a); label: 5' 32P
# Method in brief: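 A pool of RNA with 7 randomized nucleotides, 5′-radiolabelled and with DNA-annealed flanks, was equilibrated at 1 nM for 10 min in 50 µL with purified RbFox RRM, wild type or mutant, across increasing protein concentrations. Free RNA was separated by 8% native PAGE, excised, reverse-transcribed, barcoded by PCR and sequenced. Relative association constants were obtained from read-count changes of each RNA species versus the control reaction and normalised to the cognate motif.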
row,Binder,binding signal
1,B1,0.0943 KA relative to UGCAUGU
2,B2,0.411 KA relative to UGCAUGU
3,B3,0.0522 KA relative to UGCAUGU
4,B4,0.065 KA relative to UGCAUGU
5,B5,0.0914 KA relative to UGCAUGU
6,B6,0.124 KA relative to UGCAUGU
7,B7,0.107 KA relative to UGCAUGU
8,B8,0.119 KA relative to UGCAUGU
9,B9,0.339 KA relative to UGCAUGU
10,B10,0.175 KA relative to UGCAUGU
11,B11,0.233 KA relative to UGCAUGU
12,B12,0.0743 KA relative to UGCAUGU
13,B13,0.121 KA relative to UGCAUGU
14,B14,0.0979 KA relative to UGCAUGU
15,B15,0.277 KA relative to UGCAUGU
16,B16,1.02 KA relative to UGCAUGU
17,B17,0.0794 KA relative to UGCAUGU
18,B18,0.446 KA relative to UGCAUGU
19,B19,0.0945 KA relative to UGCAUGU
20,B20,0.0888 KA relative to UGCAUGU

# Reference: article PMC9911399, “Two distinct binding modes provide the RNA-binding protein RbFox with extraordinary sequence specificity”
